Test results published in US20190263932A1.
Substitutions are numbered along the chain they refer to.

B1: mAb A (antibody, human IgG4 S228P, kappa, F234A L235A)
heavy: EVQLVESGGGLVKPGGSLRLSCAASGFTFSGVSINWVRQAPGKGLEWVSSETTSSGTIYYADSVKGRFTISRDNAKNSLYLQMNSLRAEDTAVYYCARSYYYGMDVWGQGTTVTVSSASTKGPSVFPLAPCSRSTSESTAALGCLVKDYFPEPVTVSWNSGALTSGVHTFPAVLQSSGLYSLSSVVTVPSSSLGTKTYTCNVDHKPSNTKVDKRV[human IgG4 Fc with S228P F234A L235A (EU numbers) not shown]
light: DIVMTQTPLSSPVTLGQPASISCRSSQSLVHRNGNTYLSWLQQRPGQPPRLLIYKISNRFSGVPDRFSGSGAGTDFTLKISRVEAEDVGVYYCMQARQFPLTFGGGTKVEIKRTVAAPSVFIFPPSDEQLKSGTASVVCLLNNFYPREAKVQWKVDNALQSGNSQESVTEQDSKDSTYSLSSTLTLSKADYEKHKVYACEVTHQGLSSPVTKSFNRGEC
B2: mAb C (antibody, human IgG4 S228P, kappa, F234A L235A)
heavy: B1 heavy
light: B1 light with N33Q
B3: mAb B (antibody, human IgG4 S228P, kappa, F234A L235A)
heavy: B1 heavy
light: B1 light with N33A

Target: human TrkA receptor expressed in transfected 3T3 fibroblast cells (human), P04629
Assay: cell-based or functional assay

human TrkA receptor expressed in transfected 3T3 fibroblast cells (human), P04629, sequence (P04629 33-796): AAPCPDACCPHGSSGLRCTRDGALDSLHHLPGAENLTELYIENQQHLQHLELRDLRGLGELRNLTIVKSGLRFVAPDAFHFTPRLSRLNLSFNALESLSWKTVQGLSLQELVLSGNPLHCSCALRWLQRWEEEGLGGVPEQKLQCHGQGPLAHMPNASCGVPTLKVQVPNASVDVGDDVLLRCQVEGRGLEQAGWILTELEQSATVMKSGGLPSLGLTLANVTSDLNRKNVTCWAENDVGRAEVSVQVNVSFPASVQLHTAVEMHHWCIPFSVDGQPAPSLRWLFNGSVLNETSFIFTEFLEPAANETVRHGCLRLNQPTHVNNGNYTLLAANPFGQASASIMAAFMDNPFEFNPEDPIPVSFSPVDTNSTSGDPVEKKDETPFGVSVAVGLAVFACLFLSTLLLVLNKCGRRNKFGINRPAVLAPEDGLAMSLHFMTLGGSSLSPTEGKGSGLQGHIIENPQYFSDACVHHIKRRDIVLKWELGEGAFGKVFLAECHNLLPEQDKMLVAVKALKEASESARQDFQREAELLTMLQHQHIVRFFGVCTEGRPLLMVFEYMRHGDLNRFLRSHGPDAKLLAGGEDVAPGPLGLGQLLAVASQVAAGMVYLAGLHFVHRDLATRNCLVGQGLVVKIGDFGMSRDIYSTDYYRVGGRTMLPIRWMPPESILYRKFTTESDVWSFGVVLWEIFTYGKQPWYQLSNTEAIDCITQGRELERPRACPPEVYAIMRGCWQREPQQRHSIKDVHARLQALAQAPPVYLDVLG

Binder | % Max Inhibition, pTrkA [%] | % Max stimulation, pTrkA [%] | EC50 (nM), pTrkA [nM] | IC50 (nM), pTrkA [nM] | pTrkA counts per second, 0.1 pM mAb, no NGF (counts per second) | pTrkA counts per second, 1 pM mAb, no NGF (counts per second) | pTrkA counts per second, 10 pM mAb, no NGF (counts per second) | pTrkA counts per second, 100 pM mAb, no NGF (counts per second) | pTrkA counts per second, 1 nM mAb, no NGF (counts per second) | pTrkA counts per second, 10 nM mAb, no NGF (counts per second) | pTrkA counts per second, 100 nM mAb, no NGF (counts per second) | pTrkA counts per second, 1 uM mAb, no NGF (counts per second) | pTrkA counts per second, NGF +0.1 pM mAb (counts per second) | pTrkA counts per second, NGF +1 pM mAb (counts per second) | pTrkA counts per second, NGF +10 pM mAb (counts per second) | pTrkA counts per second, NGF +100 pM mAb (counts per second) | pTrkA counts per second, NGF +1 nM mAb (counts per second) | pTrkA counts per second, NGF +10 nM mAb (counts per second) | pTrkA counts per second, NGF +100 nM mAb (counts per second) | pTrkA counts per second, NGF +1 uM mAb (counts per second) | also measured
B1 | 86 | 15 | 0.13 | 0.77 | 132000 | 156000 | 161000 | 205000 | 404000 | 473000 | 385000 | 349000 | 1.2e+06 | 1.44e+06 | 1.54e+06 | 1.21e+06 | 791000 | 571000 | 390000 | 341000 | Internalized fluorescence per cell, normalized to total antibody levels, hTrkA 3T3: 33.4%
B2 | 77 | 23 | 0.075 | 0.8 | 242000 | 251000 | 286000 | 389000 | 513000 | 534000 | 522000 | 420000 | 2.27e+06 | 1.92e+06 | 2.4e+06 | 2.34e+06 | 1.09e+06 | 620000 | 511000 | 394000 | –
B3 | 88 | – | – | 0.58 | 433000 | 559000 | 561000 | 777000 | 313000 | 542000 | 487000 | 367000 | – | 4.34e+06 | 3.44e+06 | 3.97e+06 | 1.07e+06 | 717000 | 446000 | 438000 | % Inh., Human pTrkA, second experiment: 77%; % Inh., Human pTrkA, third experiment: 74%; % Stim., Human pTrkA, first experiment: < 15%; % Stim., Human pTrkA, second experiment: 18%; % Stim., Human pTrkA, third experiment: 36%; EC50 (nM), Human pTrkA, second experiment: 0.46 nM; EC50 (nM), Human pTrkA, third experiment: 0.35 nM; IC50 (nM), Human pTrkA, second experiment: 0.84 nM; IC50 (nM), Human pTrkA, third experiment: 1.07 nM; pTrkA counts per second, +mAb 1 hr (1 uM), no NGF (counts per second): 46600; pTrkA counts per second, +mAb 24 hr (1 uM), no NGF (counts per second): 45300; pTrkA counts per second, NGF + mAb 1 hr (1 uM) (counts per second): 81500; pTrkA counts per second, NGF + mAb 24 hr (1 uM) (counts per second): 78200
